Reference: paper PMC4336329 (PLoS ONE, 2015)
In all, about 310,000 compounds went through this assay and about 2,200 (0.71%) showed an effect of 50% or more. Effects have a minus sign here. The list shows a part of the results.

Target: human ether-à-go-go-related gene (hERG) potassium channel (human, UniProt Q12809)
Assay: primary screen, population patch clamp on CHO cells stably expressing hERG

human ether-à-go-go-related gene (hERG) potassium channel, sequence (Q12809 whole entry, looked up): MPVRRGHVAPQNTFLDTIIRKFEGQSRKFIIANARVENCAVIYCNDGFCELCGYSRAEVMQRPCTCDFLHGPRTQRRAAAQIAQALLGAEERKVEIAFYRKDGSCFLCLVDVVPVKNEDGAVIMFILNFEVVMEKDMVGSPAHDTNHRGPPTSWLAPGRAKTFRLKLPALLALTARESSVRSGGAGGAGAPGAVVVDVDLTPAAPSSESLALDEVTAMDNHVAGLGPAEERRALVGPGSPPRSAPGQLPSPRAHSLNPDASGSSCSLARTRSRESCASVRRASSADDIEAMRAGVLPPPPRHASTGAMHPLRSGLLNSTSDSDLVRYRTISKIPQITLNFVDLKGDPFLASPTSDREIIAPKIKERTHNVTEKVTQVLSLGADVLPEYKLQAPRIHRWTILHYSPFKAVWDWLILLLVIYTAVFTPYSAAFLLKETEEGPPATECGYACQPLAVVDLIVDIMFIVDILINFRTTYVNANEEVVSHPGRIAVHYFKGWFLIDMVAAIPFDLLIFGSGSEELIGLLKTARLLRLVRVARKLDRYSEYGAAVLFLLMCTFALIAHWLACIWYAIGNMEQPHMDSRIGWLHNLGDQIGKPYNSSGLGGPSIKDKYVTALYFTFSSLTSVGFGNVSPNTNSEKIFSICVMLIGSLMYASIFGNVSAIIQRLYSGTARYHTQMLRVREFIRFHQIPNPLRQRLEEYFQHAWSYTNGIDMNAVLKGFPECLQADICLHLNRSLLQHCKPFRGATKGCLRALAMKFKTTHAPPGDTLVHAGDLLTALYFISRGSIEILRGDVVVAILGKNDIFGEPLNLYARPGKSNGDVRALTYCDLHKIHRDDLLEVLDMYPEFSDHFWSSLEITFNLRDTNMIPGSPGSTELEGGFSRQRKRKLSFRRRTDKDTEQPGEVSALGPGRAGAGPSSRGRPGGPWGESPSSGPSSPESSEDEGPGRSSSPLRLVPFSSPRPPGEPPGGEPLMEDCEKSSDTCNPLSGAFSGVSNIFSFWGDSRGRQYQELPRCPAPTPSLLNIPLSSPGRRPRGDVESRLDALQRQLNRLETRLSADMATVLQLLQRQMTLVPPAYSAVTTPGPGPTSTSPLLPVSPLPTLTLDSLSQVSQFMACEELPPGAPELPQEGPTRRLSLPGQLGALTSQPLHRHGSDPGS

SMILES | hERG current change (%, negative = inhibition) at 1uM
COc1ccc(C(=O)CSc2ncn[nH]2)cc1OC | 5.09%
Cl.Oc1cccc(Nc2nc(NCC3CCCO3)c3ccccc3n2)c1 (centres unmarked) | -28.1%
Cc1c(C(=O)N(C)Cc2cccc(F)c2)oc2c(Cl)cccc12 | 11.5%
CSc1nnc(-c2ccccc2Cl)o1 | 11.4%
Cn1c(=O)c2c(n(C)c1=O)=NC1(CCCCC1)N=2 | 5.44%
CCOc1ccc(CNC(=O)C2CCN(S(=O)(=O)N3CCCC3)CC2)cc1OC | 15.7%
CCOC(=O)c1c(C)[nH]c(C(=O)COC(=O)CNC(=O)c2ccc(Br)cc2)c1C | 4.43%
Cc1c(NC(=O)C2CCCNC2=O)c(=O)n(-c2ccccc2)n1C (centres unmarked) | 10.3%
O=C(NC(=S)Nc1nc(-c2ccccc2)cs1)c1cccnc1 | 4.59%
O=C1CCCC(=O)N1c1ccc(Oc2ccc(Cl)cc2)cc1 | 11%
C=C(Cl)COC(=O)[C@H]1C2C=CC(C2)C1C(=O)O (some centres unmarked) | 2.85%
O=C(c1ccc(C(F)(F)F)cc1)C1CCCN(Cc2ccncc2)C1 (centres unmarked) | -7.99%
Cc1ccc(NC(=O)CCNS(=O)(=O)c2ccc3c(c2)c(=O)n(C)c(=O)n3C)cc1C | 11.3%
CC(=O)Nc1ccc(N2S(=O)(=O)c3ccccc3S2(=O)=O)cc1 | 4.71%
CCOc1ccc(C(=O)NCc2ccco2)cc1 | -4.13%
CC1CCN(C(=O)CN(c2ccc3c(c2)OCO3)S(C)(=O)=O)CC1 | 13%
O=S(=O)(/N=C(/NS(=O)(=O)c1ccccc1)c1ccccc1)c1ccccc1 | 16.8%
O=C1CC(c2ccccc2)CCc2sccc2N1 (centres unmarked) | 6.32%
COc1ccccc1Cn1[nH]nnc1=S | 12.5%
CCn1c(CNC(=O)COc2ccc(C(C)C)cc2)nnc1SCC(=O)Nc1ccccc1F | -6.89%
O=C(NCc1ccncc1)C(=O)NCC1OCCCN1S(=O)(=O)c1ccccc1 (centres unmarked) | 9.43%
CCOC(=O)c1ccc(-n2c(C)nc3c(cnn3-c3ccccc3C)c2=O)cc1 | 12%

SMILES | hERG current change (%, negative = inhibition) at 1uM
COc1ccc(CCNC(=O)C2CCN(C(=O)N(C)C)CC2)cc1OC | 13.6%
OCCC1CN(Cc2ccc(F)cc2)CCN1CCCc1ccccc1 (centres unmarked) | -55%
COc1ccc(N2CCN(CNC(=O)c3ccccc3)CC2)cc1 | 10.6%
CN(C)CCNC(=O)Nc1ccc([N+](=O)[O-])cc1 | 12.4%
CC(=O)N(c1nnc(-c2cccc(C)c2)s1)C1CCCC1 | 12.5%
CCOC(=O)C/C(C)=N\Nc1nc(-c2ccccc2)cs1 | 5.58%
COc1cc(NC(=O)NCC2CCN(Cc3ccccc3Cl)CC2)cc(OC)c1OC | 11.6%
Cc1cc(C)cc(NC(=O)c2ccc(CNc3c(N4CCCC4)c(=O)c3=O)cc2)c1 | 20.3%
N#Cc1cc2c(nc1SC1CC(=O)N(c3ccccc3)C1=O)CCC2 (centres unmarked) | 8.23%
O=C(N/N=C/c1ccc2c(c1)OCO2)c1cc(-c2ccncc2)nc2ccccc12 | 10.4%
CCOc1ccccc1NC(=S)Nc1ccccc1F | 10.7%
CCN(CC)S(=O)(=O)c1ccc(C)c(NC(=O)CSc2ncc(C(F)(F)F)cc2Cl)c1 | 2.99%
CCCC(=O)Nc1ccccc1-c1nnn(CC(=O)Nc2ccc(OCC)cc2)n1 | 2.2%
Cc1cc(C)n(-c2ccc(C)c(Cl)c2)n1 | 6.87%
C=C(C)c1cccc(C(C)(C)NC(=O)Nc2cccnc2)c1 | 14.6%
COC(=O)C1=C(c2ccccc2)C[C@@H]2CC[C@H]1N2C(=O)NC1CCCCC1 | -2.72%
c1ccc(CCNc2nc(-c3cccnc3)cs2)cc1 | -12%
COc1cccc(NC(=O)COc2ccc(C(=O)N3CCN(C)CC3)cc2)c1 | 15.4%
CC(=O)NCCn1c(SCC(=O)NCC2CCCO2)nc2ccccc2c1=O (centres unmarked) | -3.33%
COc1ccc(-c2c(NC(=O)C(C)C)n(C)c3ccccc3c2=O)cc1 | 15.7%
Cc1ccc(N=Nc2c(O)n(CN3CCOCC3)c3ccccc23)cc1 | 11.1%
CNC(CC(C)C)C(=O)NC1C(=O)NC(CC(N)=O)C(=O)NC2C(=O)NC3C(=O)NC(C(=O)NC(C(=O)O)c4cc(O)cc(O)c4-c4cc3ccc4O)C(O)c3ccc(c(Cl)c3)Oc3cc2cc(c3OC2OC(CO)C(O)C(O)C2OC2C[C@](C)(N)C(O)C(C)O2)Oc2ccc(cc2Cl)C1O (some centres unmarked) | 11.1%
